This is an account of results in the supplement of paper PMC11417369.

The list shows a part of the results.

The assay has as its system PF3D7_0420300 AP2 domain 1 (GST-tagged). As to the kind of experiment: gcPBM binding intensity (ln(normalized median fluorescence intensity)); higher = stronger DNA binding. The gist of the method:
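Binding of GST-tagged P. falciparum DNA-binding domains, expressed in E. coli and used at about 25 μg on average, was carried out for 1 h in 1× PBS containing 1% milk, 0.2 mg/ml BSA, 0.5% salmon testes DNA and 0.03% Triton X-100. The target was an Agilent 4 × 180k array of primer-extended double-stranded 36-bp intergenic genomic probes plus negative controls, read with Alexa488 anti-GST antibody at 488 nm. Binding intensity is the highest Masliner-normalised natural-log median intensity across replicate spots of either probe orientation.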
“TTATCTCTACAAAGTGCACACACGTAAAAACATATA [CACACA_site3957]”: the “gcPBM binding intensity (ln)” value was 9.44.
Take “GTAGGGGAAAAAAAAACACACAAAAAACAACAGATC [CACACA_site1187]”: the “gcPBM binding intensity (ln)” value is 9.92.
Then “CATTATGTTGTAAATACACACATACAGATACATACA [CACACA_site4565]”, with 9.54; and “TTTTTTGGTTTTCATGCACACAATTTATAAATCTAT [CACACA_site3106]”, with 9.61.
To “TAAAGGCAAACAAACACACACACATAAATACAGATA [CACACA_site5204]” belongs 10.2.
In the case of “ATATGCGTTTGCAAATGTACATATTATTTATATATA [XGTACX_site7128]”, the “gcPBM binding intensity (ln)” value worked out at 9.23.
Turning to “ATAATTCTTTTACTGTGTACATATTATCACTTATTT [XGTACX_site2456]”, the “gcPBM binding intensity (ln)” value was 9.64.
To “AAAAAGAAAAAATATATTCGTCTATTATAAACAATA [CACACA_negctrl_site648]” belongs 9; to “TAAATATTAACAATCGCACACATATTATTTTTCCAA [CACACA_site1626]”, 9.32; to “GAATATATATTCATATGTACACAATTTATGTATTAT [XGTACX_site4719]”, 9.36.
To “AAGGTAAACAGACACACACACATACAAAAAAAAAAA [CACACA_site3768]” belongs 10.
To “ATATATATATTATATGCACACTTATATTTCATTAGA [CACACA_site5439]” belongs 9.33; to “TATTTATAAATGAACACACACGCAATTTGAATCGAA [CACACA_site3371]”, 9.72.
Take “TTTTTATATTTCAACATATCACAATTTTATATATCT [CACACA_negctrl_site178]”: the “gcPBM binding intensity (ln)” value was 9.24.
To “AACACATACAGATATGCACACATTTTATTCCATTAT [CACACA_site5565]” belongs 9.65; to “CTATATCATTTTCTAGCACACACATTGTTATTACCT [CACACA_site8204]”, 9.84; to “GAATATAAACCTATTACACACATCTATATGTACATT [CACACA_site1914]”, 9.67.
Then “TTTTTTATGCTAACTTCTTTTTCCTTATAAAATTGG [TGCATGCA_negctrl_site598]”, with 9.15.
Then “ATTTTTTTTATTATTACACACATATAACAAAAAAAT [CACACA_site6934]”, with 9.4.
“TATATAACATATAACACACATACTTAGTATTACATA [CACACA_site3099]”: the “gcPBM binding intensity (ln)” value came to 9.51.
To “ACAGTATCAATATGGATAAAAATGTCCATATGCCTG [TGCATGCA_negctrl_site482]” belongs 9.2; to “TAAATATATATATACACACACACCAAAGCAATAGAT [CACACA_site2940]”, 10.3.
For the sequence “TTATATATACCTAAGACACACACATATATATATATA [CACACA_site8153]”, the “gcPBM binding intensity (ln)” value worked out at 9.63.
Then “ATTAAATATGTCAAGTGTACAAAATGTAAAAAAAAA [XGTACX_site4119]”, with 9.25; and “GCCATTGTACCATCCACACACATATAAATATGTATA [CACACA_site7303]”, with 9.85.
Then “TATGAAGAAAAGAATTGTACGATGTTTATTTTGTAT [XGTACX_site8614]”, with 9.22; and “TGTTAATAGAAATACGTGCACACTAAAGGGAAAACA [CACACA_site1485]”, with 9.48.
In the case of “TTGTTATCTACCTGTAGTACATATATTATGTAATAT [XGTACX_site735]”, the “gcPBM binding intensity (ln)” value was determined as 9.2.
Then TTTTTATATTTTATAGTGCAAAAACTTACATAAAAT, with 8.85.
Take “ATATAATGGACCATAGTGCATAAAAATAACAAAAAA [GTGCAC_site9558]”: the “gcPBM binding intensity (ln)” value was found to be 9.41.
Then “TATTTTTTTTCTTTATTTATAACGCTCAATATATTC [GTGCAC_negctrl_site265]”, with 9.15; and “TGGAAATATATATATATATATACATATATATATAGC [XGTACX_negctrl_site107]”, with 9.02.
Then “TTTTAATATTTTAAGAGTACAGAAATATATAATATG [XGTACX_site4955]”, with 9.01.
To “CATATAAATATATATACACACACACCGTAATACATA [CACACA_site9158]” belongs 10.2; to “ATTTTATAACATTCATGTACACATTTCATTTATTTG [XGTACX_site3028]”, 9.55.
In the case of “AGAGACACTTTTTATTGTACAAGAGGAGGTTACCTT [XGTACX_site8768]”, the “gcPBM binding intensity (ln)” value is 9.17.
On to “TACGAAAAAAAAAAAAAAAAAAAAAAACACAAAAAA [CACACA_negctrl_site1643]”, for which the “gcPBM binding intensity (ln)” value was 9.14.
Consider “AATACCATAATCAATGCACACATAACAAAATATTAT [CACACA_site8873]”, for which the “gcPBM binding intensity (ln)” value is 9.72.
Then “TTATTTATTTTTATATGTACACAAAAAAAAAAAAAA [XGTACX_site1459]”, with 8.59; and “AATATATATAACGTTGGTACACAAAAATTATTAAAT [XGTACX_site8572]”, with 9.6.
To “CCTCATCCACTATGCACACAAAAAAGAAATACACTA [CACACA_site3422]” belongs 9.48; to “TTTTTTTTTTTTTTAACACACATATATATATTTTTC [CACACA_site1922]”, 9.26; to “TTCTCAAATATAATAAAATTATAAAGTGACCTAACT [GTGCAC_negctrl_site493]”, 9.02.
Then “TAATGGATTATACGTGCACACATATATACAAATAAA [CACACA_site8116]”, with 9.42; and “TTTTTTTTTAAATATACACACACATTTATACATATA [CACACA_site9122]”, with 9.64.
For “TTTGGAATATAATATTGTACATATTATATATATATA [XGTACX_site3187]”, the “gcPBM binding intensity (ln)” value turned out to be 9.07.
Then “TTCTATTATGTGACTCAATTCTTCATGGGTGTATAA [TGCATGCA_negctrl_site140]”, with 9.23; and “AATGTATTTATTTTTTGTACATATCGTGTGTGTATT [XGTACX_site1009]”, with 9.85.
As for “AATTATTCTCTTTTCATTTGAACAATATGCTTAAAA [CACACA_negctrl_site995]”, the “gcPBM binding intensity (ln)” value is 9.09.
Turning to “AATATTTTTTAAATGTGTACATAGGTATAGCACACA [XGTACX_site8690]”, the “gcPBM binding intensity (ln)” value worked out at 9.26.
To “ACAAATATGAGAAATTGTACATATAATAAAATAGTA [XGTACX_site2573]” belongs 9.31; to “ACACATTCGAAAAATTGTACATATATAACAGAATAT [XGTACX_site7106]”, 9.53.
To “AGTCATATAAATAGTAGTACTGTGTGTGAAGAAAAA [XGTACX_site5056]” belongs 9.7.
With “GACTGCACTTTAAGCACACAAATATATTTTTTTTAT [CACACA_site1249]”, the “gcPBM binding intensity (ln)” value turned out to be 9.35.
To “ATCAAATTTGGACATGCATGTGTGTGTAAAACCATG [TGCATGCA_site309]” belongs 10; to “ATATTAGTCGAATGATGTACACACATACAAAACATT [XGTACX_site8613]”, 9.73.
